The values that follow come from ChEMBL document CHEMBL4888484, “Replenishing the malaria drug discovery pipeline: Screening and hit evaluation of the MMV Hit Generation Library 1 (HGL1) against asexual blood stage Plasmodium falciparum ,using a nano luciferase reporter read-out” (2022).

Usually % Inhibition stands for the relative decrease from the control value, in per cent.

Among all 150,000 compounds or so, about 540 (0.36%) showed an effect of 50% or more. The list shows a part of the results.

This experiment deals with Plasmodium falciparum. Nature of the experiment: Primary screen in NF54 nanoGlo assay, in single point, at 2uM, 72h; a lower Z score goes with more inhibition. It counts as functional, Erythrocyte. To be noted: timepoint 72 hour.
Turning to `Cn1ccc2cccc(Cc3noc(C[C@H]4CCNC4=O)n3)c21`, the “% Inhibition” value is given as -1% and the Z score is listed as 0.16.
As for `C[C@@H]1CN(C(=O)CN2CCOCC2)CC[C@@]1(O)C1CCOCC1`, the “% Inhibition” value was -8% and the Z score turned out to be 1.33.
The like results for `CN1CCC[C@H](NC(=O)c2cc3ncccc3o2)c2ccccc21` were, in that order, -14% and 1.87.
As to `CCc1ccc(N2C(=O)C3ON(c4ccccc4)C(c4cccc5ccccc45)C3C2=O)cc1` (stereo not drawn), the “% Inhibition” value is reported as -9% and the Z score stood at 0.91.
The like results for `O=C(N[C@@H](Cc1ccccc1)c1ccccc1)c1cc2n(n1)CCN(Cc1c(Cl)cccc1Cl)C2=O` were, in that order, 1% and -0.29.
The matching figures for `Cc1nccn1C[C@@H](C)CNC(=O)c1nc2n(n1)CCCN2`: -5% and 0.53.
The matching figures for `Cc1cccc(N(CC(C)(C)C)C(=O)[C@H]2CCCO2)n1`: -3% and 0.37.
On to `COc1ccc(-c2noc([C@@H]3CCCN3C(=O)c3cc4ccccc4[nH]3)n2)cc1OC`, for which the “% Inhibition” value is -3% and the Z score is reported as 0.38.
The matching figures for `O=C(Nc1cccc(F)c1)c1c(F)c(F)c2c(c1F)N(Cc1cccnc1)CCS2(=O)=O`: -7% and 0.91.
The like results for `COc1ncc(C(=O)NCc2csc3c2CCCC3)cn1` were, in that order, -3% and 0.41.
The matching figures for `Cc1cccc([C@H]2CCCN(C(=O)NCCCN3CCC(O)CC3)C2)c1`: 10% and -1.29.
Turning to `Cc1cc(C)nc(NC(=O)c2ccco2)n1`, the “% Inhibition” value was -10% and the Z score stood at 1.18.
For the compound `COc1ccc(CNC(=O)CCc2c(C)nn(-c3ccc4nnc(C)n4n3)c2C)c(OC)c1`, the “% Inhibition” value amounted to 5% and the Z score was -0.63.
Turning to `CCCC(=O)N1CCC(N(Cc2ccc(C)cc2)C(=O)CN(CCOC)S(=O)(=O)c2ccccc2)CC1`, the “% Inhibition” value is reported as -5% and the Z score came out at 0.64.
Turning to `O=C1OCC[C@@H]1Oc1ncnc2ccccc12`, the “% Inhibition” value is on record as -3% and the Z score is on record as 0.47.
The matching figures for `CC(=O)N1CCC(Nc2cc([C@H]3CCOC3)nc(N3CC(O)C3)n2)CC1`: -8% and 1.61.
The matching figures for `CC(C)C(C(=O)NC1CCc2nccn2C1)N1CCCCC1` (stereo not drawn): -8% and 1.57.
The like results for `Cc1cc(C(=O)N(C(C)C)C2CC2)ccc1N` were, in that order, -8% and 1.27.
Regarding `COCCN(Cc1cc2ccc(Cl)cc2nc1N1CCC[C@H](CO)C1)C(=O)c1sccc1C`, the “% Inhibition” value came out at 2% and the Z score is given as -0.41.
As to `CN1CCN(C)[C@@H](CC(=O)NCCCCc2ccccn2)C1`, the “% Inhibition” value is recorded as -14% and the Z score is given as 1.55.
The like results for `O=c1[nH]c([C@H]2CCC(F)(F)C2)nc2ccc(Br)cc12` were, in that order, -10% and 1.02.
The matching figures for `CC(C)c1noc(CN(C)CCN2CCN(c3ccccc3)CC2)n1`: -12% and 1.04.
`NC(=O)NC1CCC(C(=O)N2CCC[C@H]2C(=O)Nc2cc(Cl)cc(Cl)c2)CC1` (stereo partly drawn): the “% Inhibition” value was -5% and the Z score was 0.64.
The matching figures for `O=C(N[C@H]1CCS(=O)(=O)C2(CCC2)C1)c1cc(F)cnc1O`: 5% and -1.
For the compound `CCOC(=O)N1CCc2c(nc(-c3ccc(C)cc3)n(CC(=O)Nc3ccccc3F)c2=O)C1`, the “% Inhibition” value was -13% and the Z score is on record as 2.31.
On to `CN1CCCc2cc(C(=O)NCc3cccnc3)sc21`, for which the “% Inhibition” value is listed as -9% and the Z score came to 1.77.
The matching figures for `COc1nc2c(cc1CN[C@@H](C)CN(C)C)C(=O)N(C1CCCC1)C2`: 1% and -0.11.
On to `CCn1cc(CNc2ccc3nc(N(C)C)oc3c2)cn1`, for which the “% Inhibition” value was -9% and the Z score is reported as 1.27.
Regarding `O[C@H](c1ccccc1)c1nncn1Cc1nnc(-c2ccccc2)s1`, the “% Inhibition” value was -7% and the Z score is on record as 1.28.
The matching figures for `Cc1[nH]ncc1C(=O)N1CCCN(CC(F)F)CC1`: -7% and 0.98.
The like results for `O=C(Nc1ccccc1C(=O)N1CCN(c2cnccn2)CC1)c1cccs1` were, in that order, -6% and 1.
The like results for `CCn1ccc(CN2CCC[C@H](c3nc(C)n[nH]3)C2)n1` were, in that order, 2% and -0.43.
For the compound `CC(C)n1nccc1C(=O)NCCOC1CCCCC1`, the “% Inhibition” value is -7% and the Z score worked out at 1.18.
In the case of `COCCCn1c(C)cc(C(=O)N(CCN2CCOCC2)C2CCOCC2)c1C`, the “% Inhibition” value is given as -7% and the Z score came out at 1.21.
Take `CC(C)(CCC#N)CN[C@H]1CCOc2ccc(F)cc21`: the “% Inhibition” value is reported as -10% and the Z score is 1.14.
The like results for `CCc1c(C(=O)N(C)Cc2ccc3c(c2)OCO3)cnn1C(C)(C)C` were, in that order, -10% and 2.
The like results for `COCCc1nc([C@@H]2COc3ccccc3O2)n(C)n1` were, in that order, -5% and 0.52.
The matching figures for `O=C(Cc1cccc(F)c1)N(c1cccc(F)c1)C1CCOCC1`: -5% and 0.73.
For the compound `C[C@H]1CCCN(C(=O)CCCNC(=O)C(C)(C)C)C1`, the “% Inhibition” value was 5% and the Z score was -0.64.
The like results for `COCCc1nc(CNC(=O)c2ccc3c(c2)OCO3)no1` were, in that order, -6% and 1.18.
In the case of `Cc1ccccc1-n1nc(C(=O)O)c(C)c1Oc1ccc(NC(=O)C2CCC2)cc1S(=O)(=O)NC(C)C`, the “% Inhibition” value is -21% and the Z score turned out to be 2.1.
The like results for `O=C(Cn1cncn1)NC1(c2ccc(Cl)c(Cl)c2)CC1` were, in that order, 0% and 0.02.
The matching figures for `O=C(NCc1ccc(Cl)cc1)c1cccn2c(=O)c3ccccc3nc12`: 30% and -3.42.
The like results for `CC(=O)Nc1ccc(N2Cc3ncccc3C2=O)cc1F` were, in that order, 8% and -0.76.
Regarding `COC1(CNC(=O)Nc2cccn(CC(F)(F)F)c2=O)CCC1`, the “% Inhibition” value was -3% and the Z score is 0.37.
On to `C[C@H]1CN(C(=O)CCc2ccncc2)CCN1`, for which the “% Inhibition” value was -6% and the Z score came to 1.14.
The matching figures for `O=C(NCCc1noc([C@@H]2CCCO2)n1)c1ccc(Oc2ccccc2)o1`: -10% and 1.31.
The like results for `C[C@@H](CN(C)Cc1ncccc1C(=O)O)C1CCCCC1` were, in that order, -20% and 2.09.
The matching figures for `CCOc1cccc(CN2CCOC[C@H]2c2ccc(COC)o2)n1`: 0% and -0.06.
Take `O[C@H]1[C@H](NCc2ccncc2Cl)[C@H]2CO[C@H](O2)[C@@H]1n1cncn1`: the “% Inhibition” value is -4% and the Z score was found to be 0.67.
For the compound `CC(=O)N(CCN1CCCCC1)[C@H]1CCCN(C(=O)CC2CCCC2)C1`, the “% Inhibition” value is reported as 6% and the Z score was -0.79.
The like results for `CCCc1cc(N2CCN(C(=O)c3cccc4[nH]ccc34)CC2)nc2nnc(CC)n12` were, in that order, -15% and 1.97.
The matching figures for `Cc1nn(CC(F)(F)F)c(C)c1CC(=O)N[C@H]1CCO[C@@H]1c1ccnn1C`: 3% and -0.37.
The matching figures for `CC(=O)NCc1nc(C2CC2)nn1-c1cccc(C)n1`: -2% and 0.37.
On to `O=C(Nc1cc(-c2cccc(F)c2F)n[nH]1)c1cscn1`, for which the “% Inhibition” value is listed as -27% and the Z score was 2.27.
With `O=C(c1ccco1)N1CC(Oc2nccs2)C1`, the “% Inhibition” value was -21% and the Z score was 3.27.
The matching figures for `CCNC(=O)[C@@H]1C[C@H](N)CN1Cc1csc(-c2ccccc2)n1`: -22% and 2.56.
The matching figures for `Cc1ccc(NC(=O)N(C)C(C)C)cc1NC(=O)N(C)C(C)C`: 31% and -3.45.
In the case of `Cc1ccc(CNC(=O)c2cc(-c3ccc(F)cc3)ns2)o1`, the “% Inhibition” value amounted to 3% and the Z score was -0.38.
As to `CN1CCN(C(=O)c2cnn(-c3ncc4c(n3)-c3ccccc3CCC4)c2C2CC2)CC1`, the “% Inhibition” value is -1% and the Z score is on record as 0.14.
For `CCC[C@@]1(C2CCN(C(=O)Cn3nc(C)cc3C)CC2)NC(=O)N(CCc2cccs2)C1=O`, the “% Inhibition” value is listed as -3% and the Z score is listed as 0.57.
For `COc1ccc(C(C)(C)NC(=O)c2ncc3n2CCCC3)cc1F`, the “% Inhibition” value was -18% and the Z score is 2.54.
On to `O=S(=O)(c1cccc2nsnc12)N1CCc2ccccc2C1`, for which the “% Inhibition” value is given as -2% and the Z score was 0.3.
For the compound `COc1ccc(Cl)cc1NC(=O)Cn1c2c(c(=O)n1-c1ccc(C)cc1C)Cc1cccc(OC)c1O2`, the “% Inhibition” value is given as -26% and the Z score stood at 2.64.
As for `Cc1ccc2nc(-c3ccc(C)s3)cc(C(=O)N3CCC(Cc4ccccc4)CC3)c2c1`, the “% Inhibition” value is reported as -5% and the Z score is 0.77.
Take `CCNC(=O)NC(=O)COc1ccc(Cl)cc1Cl`: the “% Inhibition” value is reported as -7% and the Z score is 1.
The like results for `Cc1cc(N2C[C@H](NC(=O)CN3CC(=O)NC3=O)[C@@H](C3CC3)C2)ncn1` were, in that order, -8% and 1.06.
The matching figures for `O=C(Nc1cccc(Cl)c1)c1ccc(-c2cnc(N3CCCC3)nc2)cc1`: 39% and -4.37.
With `O=C(c1c(F)cccc1Cl)N1CCCN([C@H]2CCOC2)CC1`, the “% Inhibition” value was 6% and the Z score is recorded as -0.94.
With `O=C(Nc1ccncc1)N1CCCCC[C@H]1C(F)(F)F`, the “% Inhibition” value was -31% and the Z score amounted to 3.67.
Turning to `Cc1noc(C)c1CN1C[C@H]2CC[C@@H](C1)N(Cc1ccc(Cl)cc1F)C2`, the “% Inhibition” value is on record as -10% and the Z score turned out to be 1.98.
Take `CC12CCN(S(N)(=O)=O)CC1C2(F)F` (stereo not drawn): the “% Inhibition” value is given as -5% and the Z score turned out to be 0.47.
The like results for `CCc1ncc(S(=O)(=O)N[C@@]2(C#N)CC2(C)C)s1` were, in that order, -15% and 2.15.
With `C[C@@H](CNc1ccccn1)N1CCN(C)CC1`, the “% Inhibition” value was -7% and the Z score is 1.04.
For `COc1ccc([C@H]2C[C@@H](c3ccc(Br)cc3)Nc3nnnn32)cc1OC`, the “% Inhibition” value is on record as -15% and the Z score amounted to 2.03.
On to `c1ccc2c(c1)CCCN2Cc1nc2ccccc2o1`, for which the “% Inhibition” value was -7% and the Z score was determined as 1.48.
The matching figures for `CO[C@@H](C)C(=O)Nc1cc(C(F)(F)F)ccc1Br`: -10% and 1.05.
The like results for `CO[C@@H](C)C(=O)Nc1cc(Cl)cc(Br)c1O` were, in that order, -3% and 0.61.
The like results for `Fc1cccnc1NCCCc1nnc2ccccn12` were, in that order, -12% and 1.22.
For `CCOc1ccc(-c2nn3c(nc2=O)-c2ccccc2N[C@]3(C)CC)cc1`, the “% Inhibition” value is on record as 16% and the Z score is given as -1.67.
In the case of `Cc1csc(CNc2cc(C)c(Br)cn2)n1`, the “% Inhibition” value is listed as -5% and the Z score is 0.88.
For the compound `CCc1nnc(NC(=O)c2coc(CC3CC3)n2)s1`, the “% Inhibition” value stood at 28% and the Z score was -3.11.
Regarding `Cc1ccc2nc(N3C[C@H](O)[C@@H](N4CCCC4)C3)cc(C)c2c1`, the “% Inhibition” value is -3% and the Z score came to 0.39.
The matching figures for `CC[C@H](C)[C@@H]1NC(=O)[C@@H]2C[C@H](NC(=O)c3cccnc3Oc3ccc(Cl)cc3)CN2C1=O`: -13% and 1.53.
